Measured values as given in paper PMC4336329 (PLoS ONE, 2015).
Screen size: about 310,000 compounds; about 2,200 (0.71%) showed an effect of 50% or more. The effect is printed as a negative number. This is one part of the list.

target: human ether-à-go-go-related gene (hERG) potassium channel (human, UniProt Q12809); assay: primary screen, population patch clamp on CHO cells stably expressing hERG
Sequence (Q12809 whole entry, looked up): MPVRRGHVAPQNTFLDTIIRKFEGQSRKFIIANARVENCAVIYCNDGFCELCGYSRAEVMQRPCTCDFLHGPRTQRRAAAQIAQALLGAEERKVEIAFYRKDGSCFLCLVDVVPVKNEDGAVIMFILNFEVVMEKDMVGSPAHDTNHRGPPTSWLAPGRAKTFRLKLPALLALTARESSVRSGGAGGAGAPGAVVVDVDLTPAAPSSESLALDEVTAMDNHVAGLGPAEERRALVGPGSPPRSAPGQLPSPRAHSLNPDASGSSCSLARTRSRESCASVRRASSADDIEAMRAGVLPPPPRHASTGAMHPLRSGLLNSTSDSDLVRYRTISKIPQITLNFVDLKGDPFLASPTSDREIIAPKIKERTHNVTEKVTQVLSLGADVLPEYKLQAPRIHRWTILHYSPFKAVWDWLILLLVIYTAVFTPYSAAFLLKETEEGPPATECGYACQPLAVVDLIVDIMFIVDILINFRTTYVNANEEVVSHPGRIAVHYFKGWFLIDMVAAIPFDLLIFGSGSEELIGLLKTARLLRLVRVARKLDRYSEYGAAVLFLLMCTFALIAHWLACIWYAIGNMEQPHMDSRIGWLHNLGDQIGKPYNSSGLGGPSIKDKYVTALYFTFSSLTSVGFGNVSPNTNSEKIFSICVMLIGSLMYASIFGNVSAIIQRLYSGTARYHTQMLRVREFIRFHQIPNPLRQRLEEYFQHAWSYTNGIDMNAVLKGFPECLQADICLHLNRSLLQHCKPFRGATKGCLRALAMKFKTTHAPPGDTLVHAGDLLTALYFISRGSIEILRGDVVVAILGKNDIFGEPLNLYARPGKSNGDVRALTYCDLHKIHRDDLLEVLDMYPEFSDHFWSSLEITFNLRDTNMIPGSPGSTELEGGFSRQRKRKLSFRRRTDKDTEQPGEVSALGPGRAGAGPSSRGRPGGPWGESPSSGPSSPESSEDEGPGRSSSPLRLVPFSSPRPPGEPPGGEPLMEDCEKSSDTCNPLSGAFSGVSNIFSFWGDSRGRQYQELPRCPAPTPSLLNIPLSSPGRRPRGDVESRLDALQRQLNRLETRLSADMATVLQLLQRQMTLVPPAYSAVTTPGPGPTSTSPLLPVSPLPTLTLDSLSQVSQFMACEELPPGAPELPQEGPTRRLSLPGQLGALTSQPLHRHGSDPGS

Compound	hERG current change (%, negative = inhibition) at 1uM [%]
COc1ccc(-n2c(=O)cc(N3CC(C)OC(C)C3)[nH]c2=O)cc1 (stereo not drawn)	11.6
CCOC(=O)c1cnc(SCC(=O)Nc2ccc3c(c2)OCCO3)nc1N	7.81
COC(=O)C(CCSC)NC(=O)c1cc2c(n(-c3ccccc3)c1=O)CC(C)(C)CC2=O (stereo not drawn)	2.43
CN(Cc1cccc(F)c1)C(=O)c1cc(S(=O)(=O)N2CCOCC2)ccc1N1CCCC1	5.83
Cc1ccnc(NC(=O)C2CCCN(S(=O)(=O)c3ccc4[nH]c(=O)ccc4c3)C2)c1 (stereo not drawn)	2
COc1ccccc1CN(C)C(=O)c1ccccc1Sc1ccccc1C#N	-13.8
N#Cc1ccccc1N1CCN(C(=O)c2ccc(NC(=O)c3ccc(Br)o3)cc2)CC1	12.5
CCN(CCO)C(=O)c1ccc2nc(Cc3cccc(Cl)c3)oc2c1	7.69
CNc1nc(C(=O)O)nc(N2CCOCC2)n1	10.3
Cc1sc2ncn(CC(=O)N(C)C3CCCCC3)c(=O)c2c1C	0.429
Cc1ccc(N(CC(=O)NCc2ccc(F)cc2)S(=O)(=O)c2c(C)nn(C)c2C)cc1	15.5
Fc1ccccc1CSc1ncn[nH]1	-8.65
CCCOCCOC(=O)C1=C(C)NC(=O)NC1c1cc(Cl)c(O)c(OC)c1 (stereo not drawn)	-4.45
COc1cc(/C=N/NC(=O)CC#N)ccc1Oc1nc(Cl)ncc1F	15.3
COc1cc(-c2nc3n(n2)C(c2ccncc2)C(C(N)=O)=C(C)N3)cc(OC)c1OC (stereo not drawn)	14.9
Cc1cccc(NC(=S)NC2CCCC2)c1	5.73
O=C(NC1CCCC1)c1cc(=O)[nH]c2ccccc12	17.7
CSc1cccc(NC(=O)C2CCCN2S(=O)(=O)c2ccc3c(c2)CCC(=O)N3)c1 (stereo not drawn)	-10
COc1cc(CNc2ccc3[nH]c(=O)[nH]c3c2)ccc1OCc1ccccc1F	10.7
CCN1CCN(S(=O)(=O)c2c(C)cc(C)cc2C)CC1	9.22
CCOC(=O)c1nnsc1NC(C)=O	12.7
CC(C)n1c(=S)[nH]c2cc(C(F)(F)F)ccc21	14.8
COc1ccc(OC)c(CN2CCN(C(=O)CN3C(=O)NC4(CCCC4)C3=O)CC2)c1	7.46

Compound	hERG current change (%, negative = inhibition) at 1uM [%]
COc1ccc(C(=O)NC(=S)N2CCN(c3ccc([N+](=O)[O-])cc3)CC2)cc1	-24.6
CCCNC(=O)N1CCC(C(=O)c2ccc(F)cc2)CC1	12
Cc1cccc(C)c1NC(=O)CSc1nnc(Cc2ccccc2)o1	2.76
O=C(Cc1ccccc1[N+](=O)[O-])N1CCOCC1	13.4
CC(=O)c1c(C)nc(-c2ccc(Cl)cc2Cl)n1O	2.59
O=S(=O)(Nc1ccc(N2CCOCC2)cc1)c1cccs1	4.22
COc1ccc(CCNC(=O)CSCc2n[nH]c(=O)[nH]2)cc1OC	1.07
COc1ccc(NC(=O)N2CCC(c3nc4ccccc4[nH]3)CC2)cc1	13
CCc1ccc(N2CC(C(=O)N3CCN(c4ccccn4)CC3)CC2=O)cc1 (stereo not drawn)	3.65
CC(=O)Nc1ccc2c(CSc3nnc(N)s3)cc(=O)oc2c1	10.7
COc1ccccc1C(CNC(=O)c1cc(C)nc2ccccc12)N(C)C (stereo not drawn)	12.4
Cc1cccnc1NCc1ccc(O)c2ncccc12	23.2
CCCOc1ccc(/C(O)=C2/C(=O)C(=O)N(CCCn3ccnc3)C2c2cccnc2)cc1 (stereo not drawn)	12.6
O=C1CCCCC/C1=N/Nc1ccc(OCc2ccccc2)cc1	17.1
Cc1ccc2oc(=O)c(/C=C(\O)CC(C)C)nc2c1	11.4
O=C(O)c1cc(Cl)c2c(c1)OCO2	11.1
O=C(Cc1c(Cl)cccc1Cl)NC1CC1	10.2
CCC(NC(C)C)C(O)c1ccc(O)c(O)c1.CS(=O)(=O)O (stereo not drawn)	12.8
O=C(CSc1nc2c(c(C(F)(F)F)n1)CCc1ccccc1-2)NCc1ccccc1	9.76
Cc1cc(C)cc(C(=O)NC(CC(N)=O)c2ccc(N3CCC(N4CCCCC4)CC3)c([N+](=O)[O-])c2)c1 (stereo not drawn)	12.3
O=C(CSc1ccc(-c2cccnc2)nn1)Nc1ccccc1C(F)(F)F	13.6
COCCn1c(N)c(N(Cc2ccccc2)C(=O)Cc2c(Cl)cccc2Cl)c(=O)[nH]c1=O	11.8
